According to the supplement of paper PMC3334620:
Whole data set: some 33,000 sequences, median “E-score (-0.5 to 0.5)” near -0.04, cut for the highest 2% near 0.36. This is one part of the list.

The sequences below were run against T1, Hmlalpha2 (UniProt P0CY09) (assay: PBM E-score (8-mer binding enrichment) (E-score (-0.5 to 0.5)); higher = stronger / more preferred TF binding; most listed sequences are background and not binding sites). Conditions: protein concentration: 200 nM; construct: GST-full length.
T1 sequence: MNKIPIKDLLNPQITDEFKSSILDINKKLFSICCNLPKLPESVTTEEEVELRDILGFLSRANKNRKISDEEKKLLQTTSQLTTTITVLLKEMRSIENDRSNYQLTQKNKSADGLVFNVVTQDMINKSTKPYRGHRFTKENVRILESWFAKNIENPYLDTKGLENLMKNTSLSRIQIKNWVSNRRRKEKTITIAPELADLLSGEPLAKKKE
In short: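 The E-score, a modified Wilcoxon-Mann-Whitney statistic, was computed by the Universal PBM Analysis Suite for every ungapped eight-base word pooled with its reverse complement. Scans behind it were normalised with masliner after bound GST-tagged yeast transcription factors were detected with fluorescent anti-GST. The proteins, at about 100-200 nM, had been applied to universal all-10-mer Agilent arrays made double-stranded by primer extension.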

Sequence | PBM E-score
CCTCGTCA | -0.0356
ACTCAGTG | -0.156
CCCTGTAA | 0.325
CTAGTTGA | 0.145
AGTCTAAG | -0.118
CAGCTTGA | -0.0036
GCAGTTCC | -0.213
AGTACATA | 0.401
ATTCTCAA | 0.151
AGGTTAAA | 0.151
ACACAGAC | 0.343
CGAGGGCG | -0.23
ACCATATC | -0.211
ATATATGG | -0.0139
AAACGCAA | 0.259
GTGTGGTA | 0.156
GTGCTCGA | -0.071
CGCAATAC | 0.362
GAGCATCC | -0.257
AGTGCAAC | -0.0293
GCCGATCC | -0.245
GTGGTGCA | -0.15
GCCAAATA | -0.0471
CCATCTGC | -0.116
AACCAGAC | 0.178

Sequence | PBM E-score
GAGATGAC | -0.198
CGACTCCA | -0.228
GGTCGATA | -0.128
ATACGGCC | 0.00671
CGGACATA | 0.0379
CCCCATCG | -0.159
TATTAGCA | 0.0301
GACAGCCC | -0.261
CCGTAGGC | -0.0439
ACATGCAC | 0.36
CTGATTAC | 0.369
GGATAGTA | 0.0947
GTCACCGA | -0.0552
CTCGACAC | 0.237
CTATTGGA | -0.0573
CTAGGGAA | -0.17
AGTCTCAT | -0.176
CTGTATTA | 0.191
ACCGCCCG | -0.258
CCCAGTTA | -0.186
CACATGTA | 0.416
CGTTGGTA | 0.3
ATAATATC | 0.142
CCCAGTGA | -0.249
GACTTTGA | -0.0221

Sequence | PBM E-score
AAGTCGGG | -0.17
CGCAACAC | 0.161
GCGCAACC | -0.228
AATTATTA | 0.293
CTCCCCAA | -0.0936
CCGATATA | -0.0244
GTTCCCAA | -0.0581
CGCTAGCC | -0.269
CTCCTCAA | -0.264
CCTTTTCG | -0.0594
ACGTCTAA | 0.103
CTTAGGCC | -0.245
AGTTGCCG | -0.0501
CCGTTCAG | -0.333
ATCTAAAG | 0.147
CACGGTAA | 0.115
GCGCATAC | 0.127
CATTACGG | -0.0532
GGTCTAGA | -0.162
AAGAGTGG | -0.248
GATCCCCC | -0.293
GGAACCAA | -0.028
GAACGTTA | 0.0373
ACACAGGC | 0.29
GGATACTA | -0.0326

Sequence | PBM E-score
TAACGCAA | 0.34
CCGCGTAG | 0.294
GCTAAGCC | -0.218
GATGATGC | -0.199
GTGCCATA | -0.096
CCGTCCAG | -0.255
AACGCGCG | 0.274
CTCCGGAC | -0.134
GGTCTCGA | 0.0586
GACGGTCA | -0.196
ACCGAGGC | -0.359
GGGATACA | 0.0798
GGCAGCGA | -0.24
ATGGAAAT | 0.154
CCCCTAGA | -0.328
AGAAATCA | 0.129
CCACACAC | 0.0345
CGACGGAA | -0.11
GCGAGGAC | -0.35
GTCACAAC | 0.14
AGTTCATA | -0.0382
CTTGCTTC | 0.0506
AAGCACCG | -0.224
ATAGGGAT | 0.00772
GCGCCTGA | -0.0712

Sequence | PBM E-score
CACTGGAC | 0.0737
CTCTGGAA | -0.196
CCTCGGCA | -0.138
ACAACAAA | 0.284
TCCCGGGA | -0.237
ACTACTTA | 0.0652
CCGAGATA | -0.0216
AAACCGCG | 0.0553
CGAGCAAA | -0.102
GGCCAGAA | -0.0427
CGCTTCGA | -0.126
CAGACGAA | 0.121
GTCATTAA | 0.169
GACAGATA | 0.119
CAGCTACG | 0.0373
CATGCTTC | 0.18
CGCGGTCC | -0.202
AAATGAAC | 0.177
CAACGGCA | -0.019
GGCAGTTA | 0.0486
GATCGCAA | -0.0803
GCCACGTA | 0.202
CTATCTGC | -0.27
GGGAAATA | -0.0445
CCCGCAGC | -0.254

Sequence | PBM E-score
GAACGTCC | -0.031
AACTATGA | 0.0334
TAGAAAAA | 0.106
ATGGTAAC | 0.223
CCATCGAC | -0.234
ATCGATAC | 0.0838
AGGATAAC | -0.0626
ACTTAGTG | 0.0328
AGGCCATA | -0.303
AGTGATGG | -0.127
CACCTGGG | -0.191
AGCCACGA | -0.159
GTTGGTTA | 0.234
AGTTTACG | 0.278
AGTCTTAT | -0.0259
CTACGCAA | 0.28
CCTAGCAG | -0.215
CAATGATA | 0.0661
ATTCTTCG | 0.0234
CCTCACAG | -0.09
GTTTGGTA | 0.124
AGTTCACC | 0.0459
CGTGATAA | 0.211
GAGGCCAC | -0.0131
CTGCATAA | 0.128

Sequence | PBM E-score
AAAGCCTT | -0.211
GTGGCCCA | -0.191
AGGTAATA | 0.139
ATCCCTCG | -0.182
AGGCCACA | -0.166
TCCCCAAA | -0.0725
AATACAGC | 0.0849
CTGATCGA | -0.154
CAAAAGCC | -0.172
CGATTGTC | 0.11
AGGTCGTG | 0.084
GAAGGTAC | 0.0117
ACTTCATC | -0.116
CCGCGGCG | -0.249
GACGCCTA | -0.207
CCAGTGAA | -0.193
AAGACTCG | -0.124
CAAGACCC | -0.124
CAGCGCAG | -0.0959
CACGCTGA | 0.0967
AGCACAAC | 0.175
ACCGAACT | -0.121
